Laboratory results taken from PubChem BioAssay AID1454 (National Center for Advancing Translational Sciences (NCATS), 2008).
In all, about 130,000 compounds went through this assay and about 550 (0.42%) were called active. This list was built around the results that the source calls inconclusive (neither active nor inactive); the mix of calls is not that of the screen. Calls follow the shape of the dose curve; as a rule, active = well fitted inhibition curve with a large enough effect; inconclusive = small, poorly fitted or top-dose-only effect, or effect the other way; inactive = flat fitted curve, though single readings scatter. Potencies of inconclusive entries are left out as doubtful fits.

assay: qHTS Assay for Inhibitors of the ERK Signaling Pathway using a Homogeneous Screening Assay; Stimulation with EGF; details: HEK293-V1b, EGF-stimulated phospho-ERK AlphaScreen; also: nearly all actives have a fitted effect of over 55% in size
Outline: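 Cell line HEK293 (stable V1b), low serum overnight. Pretreatment: compound 30 min, 37C. EGF 25 nM, 5 min. Detection: SureFire AlphaScreen, 5 h RT. AC50 via standard Hill equation.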
Potency is read from the fitted curve at half-maximal effect; tags tell the direction and shape of the fitted curve.

SMILES | Potency
COC(=O)Cn1c2ccccc2c2nc(=O)cc(C)n21 | inconclusive [inhibitor, single point]
O=C(O)c1ccc(NS(=O)(=O)c2ccc3c(c2)C(=O)c2ccccc2C3=O)cc1 | inactive
CCN(CC)c1ccc(/C=C2\C(=O)c3ccc(C(=O)O)cc3C2=O)cc1 | inconclusive [inhibitor, partial curve]
COc1ccc(CCNC(=O)CSCc2c(F)cccc2Cl)cc1OC | inconclusive [inhibitor, single point]
CC(NC(=O)COC(=O)C1CSC2(C)CCC(=O)N12)C12CC3CC(CC(C3)C1)C2 (configuration not stated) | inconclusive [activator, partial curve]
COCCn1c(=O)c(CCc2ccccc2)nc2cnc(Oc3cccc(Cl)c3)nc21 | inactive
CC(=O)Nc1ccc(CN2CCc3c([nH]c4ccccc34)C2c2ccccn2)cc1 (configuration not stated) | inconclusive [inhibitor, single point]
CCN(CC)S(=O)(=O)c1ccc2c(c1)C(=NO)c1cc(S(=O)(=O)N(CC)CC)ccc1-2 | inconclusive [inhibitor, full curve, poor fit]
CCc1c(C)sc(NC(=S)Nc2nc(C)cc(C)n2)c1C(=O)OC | inactive
CCCCCCCCCCCCCc1ccco1 | inactive
CCOc1ccc(C2=NNC(c3cccs3)=Nc3ccc(OC)cc32)cc1 | inconclusive [inhibitor, single point]
O=c1c2cccnc2n(-c2ccccc2)n1Cc1c(Cl)cccc1Cl | inconclusive [activator, single point]
CCC(=O)Nc1cccc(C(=O)c2ccc(C)c(C)c2)c1 | inconclusive [inhibitor, single point]
CN1CCC2(CCN3CCc4c(oc5ccccc45)C3C2)N(C)C1=O (configuration not stated) | inactive
Cc1cccc(C(=O)Oc2ccc(/C=N/O)cc2)c1 | inconclusive [inhibitor, single point]
CCCc1cnc(NCCNCC(O)COc2ccc(Cl)c(Cl)c2)nc1 (configuration not stated) | inconclusive [inhibitor, single point]
O=C(CCCN1C(=O)/C(=C/c2ccccc2)SC1=S)Nc1cccc(O)c1 | inconclusive [inhibitor, single point]
COC(=O)[C@@]1(Cc2ccc(OC)cc2)[C@H]2c3cc(C(=O)N4CCCC4)n(CCc4ccc(O)c(OC)c4)c3C[C@H]2CN1C(=O)c1ccccc1 | inactive
COc1ccc(C(=O)COC(=O)/C=C/c2ccc(S(=O)(=O)Nc3cccc(S(N)(=O)=O)c3)cc2)cc1 | inconclusive [inhibitor, single point]
COC(=O)[C@@]1(Cc2ccc(F)cc2)[C@H]2c3cc(C(=O)N4CCCC4)n(CCc4ccc(O)c(O)c4)c3C[C@H]2CN1C(=O)c1ccccc1 | inconclusive [inhibitor, partial curve]
CN1/C(=C\C(=O)Nc2ccc(Cl)cc2)C(C)(C)c2ccccc21 | inconclusive [inhibitor, single point]
COc1ccc2c(c1)OC[C@H]1c3cc4c(cc3O[C@@H]21)OCO4 | inconclusive [inhibitor, partial curve]
Cn1cc(-c2nc3cnc(Oc4cccc(Cl)c4)nc3n(CCC#N)c2=O)c2ccccc21 | inconclusive [activator, partial curve]

SMILES | Potency
N#CC(C#N)=c1ccc2c(c1)N1C(c3ccccc3)=CC(c3ccccc3)C3CCCCC31N=2 (configuration not stated) | inconclusive [inhibitor, full curve]
O=[N+]([O-])c1cc(Cl)ccc1N1CCN(c2ccccc2O)CC1 | inconclusive [inhibitor, single point]
O=C(CSc1nnnn1C1CCCCC1)N1CCN(C(=O)c2ccco2)CC1 | inconclusive [inhibitor, single point]
COC(=O)C(F)(F)Sc1c(C)[nH]c2ccccc12 | inconclusive [inhibitor, single point]
O=[N+]([O-])c1ccc(Oc2ccc(S(=O)(=O)Nc3ccccc3)cc2)cc1 | inconclusive [inhibitor, partial curve, poor fit]
CC1=CC(C)(C)n2c(O)c(N=N)c3c(C)c(C)cc1c32 | inconclusive [inhibitor, partial curve]
O=C(c1cccc(-c2ccc(O)cc2)c1)N1CCN(c2ccc(F)cc2)CC1 | inconclusive [inhibitor, single point]
Cc1ccc(C)c(N2CCN(CCCNC(=O)Cn3cccc3C(=O)c3ccccc3C)CC2)c1 | inactive
Cc1ccc(-c2nn(-c3ccccc3)cc2/C=C2\SC(=S)N(CC(=O)O)C2=O)cc1 | inconclusive [inhibitor, single point]
Cc1ccc(-c2nnc(N3CCC(C)CC3)c3ccccc23)cc1 | inconclusive [inhibitor, single point]
CCN(CC)c1ccc(NC(=O)COc2ccc(N(C)S(=O)(=O)c3cccs3)cc2)cc1 | inconclusive [inhibitor, partial curve]
O=C(CN1CCc2ccccc21)NN1CC(=O)N(c2ccc(Cl)cc2)CC1=O | active: 17.8 µM
Cc1ccc(CNC(=O)Nc2ccc3c(c2)N(C)C(=O)CS3)cc1 | inconclusive [inhibitor, single point]
CC(C)(C)c1ccc(NC(=O)c2ccccc2)c([N+](=O)[O-])c1 | inconclusive [inhibitor, single point]
Cc1cccc(-c2cc3nc(C)c(C)c(NCCCn4ccnc4)n3n2)c1 | active: 31.6 µM
O=C1c2ccccc2C(=O)c2c([N+](=O)[O-])ccc(O)c21 | inactive
NC(=O)C(=O)N/N=C/c1c[nH]c2ccc(Br)cc12 | inactive
Cc1nc2ccccn2c1C(=O)CSc1cccc(Cl)c1 | inconclusive [inhibitor, single point]
C/C=C/c1cc(CN2CCN(c3ccc(OC)cc3)CC2)c(O)c(OC)c1 | inconclusive [inhibitor, partial curve]
Cn1cccc1C(=O)N1CCC2(CCCN(Cc3ccc(C#N)cc3)C2)CC1 | inactive
O=c1c2nccnc2[nH]c(=S)n1Cc1ccccc1 | inactive
COCCn1c(=O)c(-c2cn(C)c3ccccc23)nc2cnc(Oc3ccccc3)nc21 | inconclusive [activator, partial curve]
COC(=O)C1=C(NC(=O)C2CCCCC2)CCS1 | inconclusive [inhibitor, single point]

SMILES | Potency
COc1ccc(-n2c(C)cc(/C=C3\SC(=S)N(Cc4ccco4)C3=O)c2C)cc1 | inconclusive [inhibitor, partial curve]
COc1ccc2[nH]cc(CCNc3cc(-c4ccccc4C(F)(F)F)ncn3)c2c1 | inactive
Cc1cc(Nc2cccc(Cl)c2)nc(NCc2ccccc2)n1 | inconclusive [inhibitor, single point]
Cc1ccc(C)c(NC(=O)c2c(Cl)nc3ccccn23)c1 | inconclusive [inhibitor, single point]
O=C(/C=C/c1c[nH]c2ccccc12)c1cccc2ccccc12 | inconclusive [inhibitor, single point]
O=C(NCc1ccco1)C(=O)c1cn(CC(=O)N2CCCCCC2)c2ccccc12 | inactive
CCCCOc1ccc(-c2csc(N)n2)cc1[N+](=O)[O-] | inconclusive [inhibitor, single point]
Cc1cc2oc(=O)cc(Cn3ncc(Cl)c(Cl)c3=O)c2cc1Cl | inconclusive [inhibitor, partial curve, poor fit]
CCOc1ccc(NC(=O)C2C3CC/C=C\CCC32)cc1 (configuration not stated) | inactive
O=C1C(Nc2ccccc2)=C/C(=N/S(=O)(=O)c2cccs2)c2ccccc21 | active: 14.1 µM
O=C(O)[C@H]1C(=CCO)O[C@H]2CC(=O)N12 | inactive
CC(C)=NN1C(=O)c2ccccc2NC1(C)C | inactive
CC(=O)Nc1cccc(-c2csc(Nc3ccc(Cl)cn3)n2)c1 | active: 28.2 µM
CCc1ccc(-n2c(=O)c3ccccc3n(CC(=O)NCc3ccco3)c2=O)cc1 | inconclusive [inhibitor, single point]
CC(C)OC(=O)CCC/C=C\C[C@@H]1[C@@H](CC[C@@H](O)CCc2ccccc2)[C@H](O)C[C@@H]1O | inconclusive [inhibitor, partial curve]
CN(N=Nc1cccc([N+](=O)[O-])c1)c1cccc([N+](=O)[O-])c1 | inconclusive [inhibitor, single point]
O=C(CCN1CCCCC1)NNC(=S)NC(=O)c1ccc(Br)cc1 | inactive
Cc1csc(NC(=O)c2cc(-c3ccncc3)nc3ccccc23)n1 | inconclusive [inhibitor, full curve, poor fit]
CC(C)C[C@@H](CC(=O)N[C@@H](CCC(=O)O)CC(=O)O)NC(=O)[C@@H]1CCCC[C@H]1NC(=O)C[C@H](CCCN)NC(=O)C[C@H](Cc1ccccc1)NC(=O)[C@@H]1CNCC[C@H]1N | inactive
Cc1ccc(OCCNC(=O)c2ccccc2N)cc1 | inconclusive [inhibitor, single point]
CCn1c(O)c(N=NC(=O)CNc2cccc(C)c2)c2ccccc21 | inconclusive [inhibitor, partial curve]
